Sequences with one replicate were seen in a single cluster, so their values are uncertain.
System: ATP
Test: switch fluorescence ratio, 500 uM ATP over buffer (Cy3 cluster intensity, sum of 5 cycles each) (fold (ratio)); higher = stronger signal-on switching upon ATP binding; sequences stand for … in TCGTCGGCAGCGTCAGATGTGTATAAGAGACAGTTTTTTTTTTTTTTTTTTTTTTTTT…TC
Conditions: aptamer strand: ATP DNA aptamer (quencher-CACCTGGGGGAGTATTGCGGAGGAAGG + anchor), 100 nM annealed; ATP concentration: 500 uM; one replicate
Procedure, shortened: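 Five buffer/ATP imaging cycles were run on Cy3-labelled switching-strand clusters on a modified Illumina MiSeq flow-cell, with NaOH stripping and re-annealing between cycles. In each cycle, clusters annealed to 100 nM quencher-labelled ATP aptamer were imaged in selection buffer, then after 15 min with 500 uM ATP at 22 °C. Per cluster, the fluorescence ratio is summed target-cycle over summed buffer-cycle Cy3 intensity, averaged per switch-domain sequence. Only clusters within 100-1000 RFU were kept.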
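Further: ATP exposure 15 min at 22 °C before imaging.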

Sequence	switch fluorescence ratio
CTCCTTAAGC	1.45
CTAGTTATAT	0.985
AGAGATTGA	1.03
TACGCTACCT	1.56
TTATAGTGAG	1.01
AGCGCTTG	0.994
AGTCTGGCGT	0.982
AATGACGCG	0.977
CACATGTAGG	1.08
TTCTGTGTTC	1.02
TATCAGAA	0.985
CTGAGATTGG	1.02
AATGACATCC	1.06
GGTTCTGAGT	1.02
TGACAGTTTC	1.01
GGAATTACCA	1.07
TGGTATCTAG	1.03
TCTGGCGAG	1.08
CCATATGAAG	0.986
CACGCTGATA	1.11
CCCAAGATGT	1.75
ATTACGGAGG	0.997
TCTTCGTAAC	2.16
CTGCACAATT	1.15
TCATGGCTCT	0.994
GAATGCGTGT	1.09

Sequence	switch fluorescence ratio
TTGTTCTTCG	1.02
GTAGGTAGGA	0.966
AACAGATCGC	0.979
GCCACCGAGT	1.01
TTCTTCCCCG	1.3
AAAACGGCGC	1.01
TGCTCTGCTT	1.04
GGGTCCATCC	1.01
TCCAATAAAT	0.998
GTTTTTATCA	0.991
CTAGTACTTA	1.02
CCTCTGGGCT	1.38
AATGAGAGAT	1.03
CTTACGAACT	1.29
ACAAACAAAG	1.02
ACCTAATTT	1.06
GGGCACCTGG	1
TTTTGCAT	1.03
CTCGGGGAGG	1.03
ACACGGTGGA	0.976
GTTCTCACGT	1
CAACTAGGCT	0.977
ACTACAATGA	1.01
CTGTGGGTT	0.998
CCGAATCGTT	1.04
GACGGTTTCT	0.995

Sequence	switch fluorescence ratio
GCTACAGGG	1.03
TCGTAGGAAG	0.992
CTACGTTACG	1.39
GGCTTGATTC	0.95
ACAGATACGT	1.12
CGCCAAAAAA	1.78
GGTGAACGGC	1.05
ACGACGTCTT	1.09
CTGGCATCAA	1.04
ATGCGCTGTG	1.01
AGCGAATCCT	1.07
GCCCCAGTCA	1.08
TTATGAACTC	1.01
GGAAGAGGTT	1.16
CTCGAACTTA	1.03
AATAGGCTCG	1
TATAGACCAG	1.03
TTCCGCCCAT	1.48
AATGAGGGT	0.946
TCAATAGTCC	1.3
AGAGTTTCA	0.989
GTATTAGAGC	0.934
CAACGAAAAT	1.03
GCTATTGGCT	0.97
ACACCAGGCG	2.55
TATTTGTTC	0.986

Sequence	switch fluorescence ratio
GACTCTACTA	1.33
CAGAACGGGA	1.21
ATCCTTCGAA	1.25
ATAGCAGCTA	1
GGATGTTGAC	0.963
AAGTGAAGGA	1.02
GGCGATAAGG	1.03
GGCTGGCTTT	1.01
GGGGTACCCG	1.04
CGAAGACAAG	1.01
ATACTGAAAC	1.03
TCGAAAACGG	0.976
CGGTATTCTA	1
CTATGACGT	1.01
GGTCGGATCT	0.993
CTACTCAGCC	1.06
TGTAGTTGGG	1.04
TTTTCCAAAA	1.09
TCTAGGTGTG	1.02
CCCTGACAGT	0.995
TATGAGAGAT	1.01
GGCAAGAGAG	1.04
AGGTCCGGGA	0.955
ATGGAATTAG	1.03
CGGATCGGCC	0.991
CCGATTGTAT	1.26

Sequence	switch fluorescence ratio
TGAGAGGCAA	1.22
CGAAAGGGCG	1.03
AACGAGTTTA	0.999
AGGACTAGGA	0.997
CCCCGTGTTT	1.37
TTACCATTTC	1.05
GGTATCTGGT	0.937
TGCTAGTGCT	0.94
TTAAATTAGA	0.941
GCATGATTGG	0.989
CGCGCTAATT	1.04
CCTGTACTTG	1
CTCAAGAAAG	0.997
CAAGTGGTCT	0.994
TTTAGCCCCC	1.08
GATAATGCAA	1.08
CCGTCTACAA	1.47
GTATTAAGCA	1.02
TAAGGCAGAG	0.999
ACCGAATGGG	0.939
GGCTTTATGT	1.05
GGAAAGGGCC	1.01
CTTACGTAAA	1.25
TGACGATTC	1.98
CACCTTCTT	1.21
CCATTAAAGT	0.999

Sequence	switch fluorescence ratio
GATAAACCTC	1.2
TGGTAAAAAT	0.948
GCTATCTTAC	1.14
CTCGAGTTCG	0.996
CGCTACACAT	1.03
CAATGGTTT	0.98
ATTACTACTG	1.06
GTGGTAGTAA	0.959
AATCCGGTAA	1.12
ATGAGATTAC	1.01
GGAGAGTGGG	0.963
CATCAGGCCT	1.01
TAGAAATGGC	1.07
TAGCTATCGA	1.01
AGTGGGTACG	1
TGATTAAGTG	0.954
ACGTGGCCAA	1.02
CCCAACGGGT	1
CTTGGTCCGC	2.71
ATGGTTACGT	0.962
ACTTTCGGCT	1.01
CGAGGAGAAC	1.01
GTAGCGATGT	1.95
TGCTCCCGTG	1.27
TCCACAGCTG	1.07
CGGACGCGG	1.16

Sequence	switch fluorescence ratio
GATCCCCAAA	0.966
GCCGGCACTA	1.02
ACAGGCCCAC	1.06
ACAGACGTTT	1.14
TTCTCGCATG	1.11
CGTTTCGAGG	0.99
ACTTACGAAG	1.22
CCATTCCGGG	1.12
ACTAGGCATA	1.14
ATCATAATTT	0.981
ATATTTCGGT	0.969
TCTCTGGATT	1.02
ACGGGACACG	1.06
AAGCAGCATT	1.03
GGTTGAGTTG	1.02
AGCTTGGCG	1.03
GGCTTTGAG	0.972
ATAGAGTGCA	1.04
GATTCAGAGA	0.981
CGTAACGTTG	1.01
TATAACAAAA	1.04
CCAAATTTC	1.01
ATAGGATAGA	0.984
TGATAGATG	1.03
GGACCTAGGC	0.978
AATACTTATC	1.04

Sequence	switch fluorescence ratio
CTAGAGTGGT	1
AGGTGGACCC	0.991
AGGTGGGGCG	1.08
CTTTCTTATG	0.969
TATAGCTGCG	1.01
GTTTAGAATC	1.01
GACTATTTGA	1.05
AGGGGCTAA	0.983
TTACGTGGTA	0.971
AACAATCCTA	1.01
CGACTCAGAC	2.06
GGTTGCTAGA	1.03
CACTTAAGAG	1.01
GCTATTATAG	0.971
GGATAACTTT	1.02
TCTAGGCACA	1.12
ATCGCAGCGG	1.05
GTTCCTCAAA	1.25
GTGTTGGTGC	1.06

Reference: the supplement of paper PMC10126150
